# Source: PubChem BioAssay (NCI)
# “And” between values parts separate entries of the source, which are not always exact repeats. Identical values can stand only once.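 Assay format: 96-well plates, 48-hour exposure. GI50 marks 50% less growth. TGI marks complete inhibition of growth.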 Peptide text beside a SMILES is read from it.
# Tested on: NCI-H322M lung
# Test: NCI anticancer screen, dose series, 48 h
Compound,TGI,GI50
CC(=O)NNc1nc(C)c(C(=O)/C=C/C=C/c2ccccc2)s1,> 100 µM,
Clc1ccc(-c2nnc3c4nnc(-c5ccc(Cl)cc5Cl)n4c4ccccc4n23)c(Cl)c1,> 100 µM,
Cc1ccc(-n2c(O)c(C=N)c(=O)n(-c3ccc(C)cc3)c2=O)cc1,> 100 µM,
Cc1cc(S(=O)(=O)n2cc[nH]c2=O)c(SCCCN(C)C)cc1Cl,> 100 µM,
O=C1Nc2ccccc2/C1=C\c1c(-c2ccccc2)nc2ccccn12,49.6 µM,3.68 µM
COc1ccc(/C=C2\N=C(N/N=C\C(O)C(O)C(O)C(O)CO)NC2=O)cc1 (stereo not given),> 100 µM,
c1csc(-c2cc(-c3ccsc3)c(-c3ccsc3)s2)c1,> 100 µM,
Clc1ccc(COc2ccccc2/C=N/c2c(-c3ccco3)nc3ccccn23)c(Cl)c1,> 100 µM,
CCCCCCCCCCCCc1ccsc1-c1ccc(-c2ccc(-c3sc(-c4cc(CCCCCCCCCCCC)c(-c5ccc(-c6ccc(-c7sccc7CCCCCCCCCCCC)s6)s5)s4)cc3CCCCCCCCCCCC)s2)s1,> 100 µM,
COc1ccc2cc(C#Cc3ccc(-n4c(/C=C/c5cc(OC)c(OC)c(OC)c5)nc5ccccc5c4=O)c(C)c3)ccc2c1,> 100 µM,> 100 µM
Clc1ccc(C(Cn2ccnc2)OCc2ccsc2Cl)c(Cl)c1 (stereo not given),17.1 µM,4.47 µM
COc1cc(-c2nccn2-c2ccc3ccccc3c2)cc(OC)c1OC,57.6 µM,0.347 µM
COc1cc(C(c2c(O)c3ccccc3oc2=O)c2c(O)c3ccccc3oc2=O)ccc1O,> 100 µM,
CCCC[C@H](NC(=O)[C@H]1CCCCN1C)C(=O)N(C)[C@H](C[C@@H](OC(C)=O)c1nc(C(=O)N[C@@H](Cc2ccccc2)C[C@H](C)C(=O)OCC)cs1)C(C)C,> 33.3 µM,< 0.00333 µM
CCOC(=O)O/C(=C\c1ccc(OC)cc1)c1c(OC(=O)OCC)n(C(=O)OCC)c2ccccc12,> 100 µM,
"NC(N)=NCCC[C@H]1NC(=O)[C@@H](CCC(=O)O)NC(=O)[C@@H](CC(=O)O)NC(=O)[C@@H](CCC(=O)O)NC(=O)[C@H](Cc2c[nH]c3ccccc23)NC1=O (HELM PEPTIDE1{W.[dE].[dD].[dE].[dR]}$PEPTIDE1,PEPTIDE1,1:R1-5:R2$$$V2.0)",> 7.5 µM,
CC(C)(CNC(=O)/C(Cl)=C(/Cl)C(=O)O)CNC(=O)/C(Cl)=C(/Cl)C(=O)O,> 100 µM,
COC(=O)[C@]12CC[C@H]3CN(C(=O)OCc4ccccc4)[C@H]([C@H]31)[C@H](c1ccccc1)N2,> 100 µM,
CC1CCCc2sc3nc(NNC(=O)c4cnccn4)n(-c4ccccc4)c(=O)c3c21 (stereo not given),> 100 µM,0.354 µM and 0.234 µM
CCC[CH2][Sn]1([CH2]CCC)[O]CC(CN2CCCCC2)[O]1 (stereo not given),2.64 µM,1.33 µM
COc1cccc2c1C(=O)c1c(O)c3c(c(O)c1C2=O)C[C@@](O)(C(=O)CO)C[C@@H]3OC1CC2C(OCN3CN2COC2C(C)OC(O[C@H]4C[C@](O)(C(=O)CO)Cc5c(O)c6c(c(O)c54)C(=O)c4c(OC)cccc4C6=O)CC23)C(C)O1 (stereo not given in full),0.646 µM and 0.18 µM and 0.14 µM,0.0284 µM and 0.0179 µM

Compound,TGI,GI50
NC(N)=NS(=O)(=O)c1ccc(NC(=O)c2cccc3c(=O)c4ccccc4[nH]c23)cc1,> 100 µM,
CC[C@H](C)[C@H](NC(=O)c1ccccn1)C(=O)N(C)[C@H](C[C@@H](OC(C)=O)c1nc(C(=O)N[C@@H](Cc2ccccc2)C[C@H](C)C(=O)OC)cs1)C(C)C,> 100 µM,36.9 µM
OC1CCCN(C2(c3cccs3)CCCCC2)C1 (stereo not given),> 100 µM,
Cc1ccc(-c2cc(-c3ccccc3)nc(N)n2)c(O)c1,> 100 µM,
COC(=O)c1oc([N+](=O)[O-])c(Cl)c1Cl,26.5 µM,
CC(=O)OC1CN2CCC1CC2 (stereo not given),> 100 µM,
COc1cc(C=C(c2ccc(N(C)C)cc2)c2ccc(N(C)C)cc2)c2ccccc2c1OC,> 100 µM,
CCOc1ccc([Se][Se]c2ccc(OCC)cc2)cc1,> 100 µM,
CNC(=O)c1ccccc1Nc1cc(Nc2ccc(N3CCOCC3)cc2OC)ncc1C(F)(F)F,> 79.6 µM,2.11 µM
Cn1c(=O)c2c(nc3n(Cc4ccccc4)c(=O)c(Br)cn23)n(C)c1=O,> 100 µM,
C=CC(=O)N1CCN(CCCn2c(=O)c(-c3c(Cl)c(OC)cc(OC)c3Cl)cc3cnc(NC)nc32)CC1,15.3 µM,2.93 µM
Cc1ccc(C(=O)N/N=C(\N=Nc2cccc([N+](=O)[O-])c2)c2ccc(N(C)C)cc2)cc1,> 100 µM,
Clc1ccc2c(N3CCN(c4ccnc(NC5CCCCC5)n4)CC3)ccnc2c1,12 µM,3.2 µM
Cc1cn(C2CC(OC3CCCCO3)C(CO)O2)c(=O)[nH]c1=O (stereo not given),> 100 µM,
CCc1n[nH]c(=O)n1/N=C/c1ccc(/C=N/n2c(CC)n[nH]c2=O)cc1,> 100 µM,
C[C@@H](NC(=O)CNC(=O)OC(C)(C)C)C(=O)N[C@@H](Cc1ccccc1)C(=O)OCc1ccccc1 (HELM PEPTIDE1{[CC(C)(C)OC(=O)[*:2]].G.[dA].F.[c1ccc(CO[*:1])cc1]}$$$$V2.0),> 100 µM,
COC1=C(OC)C(=O)C(CCCCCCCCCC[P+](c2ccccc2)(c2ccccc2)c2ccccc2)=C(C)C1=O,7.31 µM,0.409 µM
COc1cccc2[nH]c3c4c(c5c(c3c12)C(=O)N(CN1CCN(C)CC1)C5=O)CCC4,34.5 µM,12.9 µM
O=C(/C=C/c1ccc2ccccc2c1)NCc1ccc(C(=O)NCc2ccccc2)cc1,> 100 µM,
CC1(C)CC(C)(C)CC(O)(C2(O)CC(C)(C)CC(C)(C)C2)C1,> 100 µM,
